# Assay results: ChEMBL document CHEMBL4888484, “Replenishing the malaria drug discovery pipeline: Screening and hit evaluation of the MMV Hit Generation Library 1 (HGL1) against asexual blood stage Plasmodium falciparum ,using a nano luciferase reporter read-out” (2022)
# Hit rate of the full screen: of about 150,000 compounds, about 540 (0.36%) showed an effect of 50% or more. The list shows a part of the results.
# System: Plasmodium falciparum
# Test: Primary screen in NF54 nanoGlo assay, in single point, at 2uM, 72h; a lower Z score goes with more inhibition
# Assay type: functional, Erythrocyte
# Details: timepoint 72 hour
SMILES,% Inhibition,Z score
CCc1c(C)sc(NC(=O)[C@@H]2CCCO2)c1C(=O)NC1CCCC1,-12%,1.64
C[C@@H](CCNc1cc(=O)[nH]c2cccnc12)NC(=O)OC(C)(C)C,-6%,1.27
CC(C)CN1CCOc2c(O)cc(-c3ccc(Cl)cn3)cc2C1,2%,-0.27
COC(=O)[C@]1(C)C[C@H](C(=O)NC2CCCC2)[C@H](c2ccccc2Cl)N1C,-1%,0.09
CCOC(=O)C1(NC(=O)[C@H]2CCCN(S(=O)(=O)CC)C2)CCCCC1,-9%,1.09
CNc1snc(C)c1C(=O)N(C)Cc1nc2ccccc2c(=O)[nH]1,-3%,0.31
Cc1ccc(C#N)c(N[C@H]2C[C@@](C)(O)C2)n1,9%,-0.94
CNc1nc2c(c(C(=O)N3CCCC3)n1)CN(c1ncnc(C)c1C)CC2,-10%,1.9
COc1ccc(F)cc1-c1cc(N2CCC(O)CC2)ncn1,6%,-1.22
O=C(N[C@H]1CCN(c2ccc(Cl)c(F)c2)C1=O)c1cnsn1,-14%,1.64
CC(C)c1nc(C2CCN(C(=O)[C@@H](O)Cc3c(F)cccc3Cl)CC2)no1,-11%,2.01
Cc1cc(NC(=O)[C@H]2CC(=O)N(c3cccc(C(=O)Nc4ccccc4)c3)C2)ccc1F,-11%,1.11
Cc1c(C2CC2)n[nH]c1NC(=O)Cc1coc(-c2ccc(F)cc2)n1,-6%,1.13
CC1(C)C[C@@H]1C(=O)NC12CC1COC2(C)C (stereo partly specified),-4%,0.39
COc1cccc(CN2CCC[C@@]3(CCOC3)C2)c1OCCn1ccnc1,-7%,1.07
CC(C)(C)C(=O)N1CCC(O)(CS(=O)(=O)Cc2ccccc2)CC1,34%,-4.34
c1ncc(CCNc2ccc3nnnn3n2)[nH]1,-4%,0.59
CC(C)c1noc([C@@H]2CCCN2C(=O)NC2CCCC2)n1,-12%,1.33
COc1cccc(C(=O)N(Cc2ccco2)Cc2c(-c3ccccc3)nn(C)c2Oc2ccccc2F)c1,-13%,1.67
C[C@@]1(C(=O)Nc2cccc(NC(N)=O)c2)CCCN1C(=O)c1ccccc1,-11%,1.92
COc1cccc2sc(N(C)CC(=O)NCCc3ccc(S(N)(=O)=O)cc3)nc12,-9%,1.62

SMILES,% Inhibition,Z score
CNC(=O)[C@@H]1CN(Cc2nccc(N)n2)CCO1,-1%,0.17
COCCN(C(=O)c1cc(-c2ccc(OC)cc2)n[nH]1)C1CCN(C)CC1,-4%,0.79
CN1O[C@@H](CC(=O)NCc2ccc3c(c2)OCO3)N(c2ccc(Cl)cc2)C1=O,-1%,0.15
C[C@H](NC(=O)c1snc(O)c1Cl)c1ccc(Oc2ccccc2)cc1,-11%,1.9
C[C@H]1C(=O)N(C)S(=O)(=O)N1CCOc1c(Cl)cccc1Cl,0%,-0.04
Cc1[nH]c2ccc(OCc3nc(C(C)(C)C)no3)cc2c1C,-14%,1.93
COc1ccc(NC(=O)C2CCN(C(=O)CNC(=O)Nc3c(Br)cc(C(C)C)cc3Br)CC2)cc1,5%,-0.79
O=C(N1CC2CCCC21)C1(C(F)(F)F)CCCC1 (stereo unspecified),-3%,0.43
CC1(c2noc(-c3ccccc3)n2)CCN(C(=O)CCS(=O)(=O)c2ccc3c(c2)CCC(=O)N3)CC1,-17%,2.22
Cc1cnn(C2CN(Cc3nc(C4CC4)no3)C2)c1,-10%,1.04
CC(C)C(=O)N1CCC[C@H](Nc2ncnc3[nH]cnc23)C1,-3%,0.36
N#Cc1cnc(N[C@H]2COC[C@@H]2O)c(Cl)c1,-15%,1.86
Cc1ncoc1C(=O)N1CCC2(CC1)C[C@@H](N(C(=O)NC(C)C)C1CC1)CCO2,6%,-0.92
CCCN1CCC[C@H](CNc2ncc(CC)cn2)C1,-12%,2.24
O=C(NCc1csc(N2CCOCC2)n1)c1ccc2c(c1)OCO2,-8%,1.03
CC1(NC(=O)CC2(CS(C)(=O)=O)CC2)CCCCCC1,-17%,1.71
COCCN1CC(=O)N[C@H]2CN(C(=O)c3ccc4c(c3)OCCO4)C[C@@H]2OCc2cccc(c2)Oc2cc(ccc2OC)CCC1=O,3%,-0.33
CCOC(=O)N1CCC(NC(=O)c2ccc(-c3cc[nH]n3)cc2)CC1,-7%,0.7
COC1(CNCc2cnn3ccccc23)CCOCC1,-6%,1.14
O=C(Nc1ccc(Cl)c(Cl)c1)C1=NCCCN1,3%,-0.43
OC(CN[C@H]1C[C@H](N2CCOCC2)C12CCC2)c1ccccc1F (stereo partly specified),-18%,2.4

SMILES,% Inhibition,Z score
CC(C)CC(=O)N1CCOC2CCCCC21 (stereo unspecified),-3%,0.38
Cc1ccc(-c2nocc2CCC(=O)NCC2CCCCC2)cc1,1%,-0.21
CC[C@@H](CO)NCc1ccc(OC(F)F)c(F)c1,-7%,1.23
CC1C(C)S(=O)(=O)CCN1CC(=O)N(C(C)C)C(C)C (stereo unspecified),-6%,0.99
Cc1c(NC(C)C(C)C)cccc1C(=O)NC1CCC(=O)N(C)C1 (stereo unspecified),-2%,0.45
COc1cc(Cl)ccc1C(=O)N1CC2(CN(C)C(=O)O2)C1,1%,-0.15
O=C(Cn1cc(Br)c(=O)[nH]c1=O)N1CCN(c2ncccn2)CC1,-6%,0.89
CS(=O)(=O)N1CCN(Cn2nnc3ccccc3c2=O)CC1,9%,-0.96
c1ccc(-c2nc(C[n+]3ccc4c(c3)CCCC4)cs2)cc1,63%,-6.15
COCCNC(=O)N1CCN(c2ncccc2-c2nnc(C(C)C)o2)CC1,-13%,1.21
CC1(C)[C@H](CS(=O)(=O)N2CC(CO)C2)C1(F)F,2%,-0.32
COc1ccc(NC(=O)Cc2nc(C)c(C(=O)NCc3ccccc3)s2)cc1,-15%,2.06
c1cn2c(CN3CCC(OC4CCCCC4)CC3)cnc2cn1,-5%,0.67
COc1ccc2c(c1)c(CN1CC[C@H](CO)[C@H](N(C)C)C1)cn2C,-2%,0.41
CC(C)NC(=O)Nc1ccc2c(c1)N(C)S(=O)(=O)N2C,-4%,0.51
CN(Cc1ccccc1)C(=O)c1nc2ccccc2s1,-10%,1.35
CCNC(=O)N[C@H]1[C@H](O)[C@H](O)C[C@@H]1c1ccc(C)cc1,-11%,1.64
c1ccc(Cc2nnc([C@H]3CCN(CC4CC4)C3)o2)cc1,-13%,2.03
O=C(CCc1ccc(Cl)c(F)c1)N1CC(N2CCc3ccccc3C2)C1,-9%,1.44
Cc1oc(-c2ccccc2Cl)nc1CN(C)Cc1cnn(C)c1C,5%,-0.63
O=C1[C@@H](N2CCC3(C2)OCCO3)CCN1c1ccc(Cl)c(F)c1,-24%,2.43

SMILES,% Inhibition,Z score
CCc1cc(C(=O)N2CCN(CC)CC2)c2c(C)nn(-c3ccc(OC)cc3)c2n1,-3%,0.4
COc1csc(C(=O)N(C)[C@H]2CCN(CC(F)(F)F)C2=O)c1,-3%,0.49
CCS(=O)(=O)N1CCN(c2nc(CN3CCN(Cc4ccccc4)CC3)cc(=O)[nH]2)CC1,-4%,0.54
O=C(Nc1ccccc1)N1CCC[C@@H]1Cc1noc(-c2ccccc2)n1,-12%,1.78
CCc1onc(C)c1[C@@H]1CCCN1Cc1ccc(C)cc1C,-10%,1.34
Cc1ccnc(NC(=O)c2occc2Br)n1,29%,-3.26
COc1ccc(-c2noc(-c3ccc(N(C)C[C@H]4CCCN4C)nc3)n2)cc1,2%,-0.3
COCCn1c(C)cnc1C[C@H]1CCCN(C(=O)COc2ccccc2)C1,2%,-0.3
COc1ccc(N)cc1OCC(F)F,27%,-3.03
O=C(c1ccncc1Br)N1CCC[C@H]1CO,-16%,2.15
Cn1c(CO)nnc1[C@H]1C[C@H](NS(=O)(=O)c2ccc3c(c2)OCCO3)C1,-12%,2.27
O=C1c2ccc(-c3nc4ccccc4o3)cc2C(=O)N1C1CCCCC1,-8%,1.12
C[C@H](NC(=O)NC1CCc2c(nnn2C)C1)c1nccs1 (stereo partly specified),-1%,0.19
Cn1c(Nn2cnnc2)nc2ccccc21,-7%,1.06
CC(NC(=O)c1ccc2c(c1)C(=O)N(CC1CCCO1)C2=O)c1ccccc1 (stereo unspecified),-1%,0.12
CCC1=C(c2ccc(C)cc2)S(=O)(=O)N=C1N1CCC(C(=O)Nc2ccccc2F)CC1,-12%,1.28
C[C@@H]1CN(CCN(C)C(=O)Nc2nc(C3CC3)cs2)C[C@H](C)O1,34%,-0.98
Cc1n[nH]c(C)c1S(=O)(=O)Nc1ccc2nc(N3CCCC3)sc2c1,-17%,1.66
CCc1c[nH]c2ncnc(N3CCN([C@H]4CCS(=O)(=O)C4)CC3)c12,1%,-0.22
Cc1cc(C)n([C@@H](C)c2nc(-c3ccc(F)c(F)c3)nn2CCO)n1,-1%,0.11
